# The campaign covered roughly 410,000 compounds. About 530 (0.13%) were called active. The shares of active, inactive and inconclusive entries below differ from those in the screen. The call rests on the fitted dose curve; in most records, active means well fitted inhibition curve with a large enough effect; inconclusive means small, poorly fitted or top-dose-only effect, or another doubt; inactive means no such curve, though single readings can be large or run the other way. Potencies of inconclusive entries are doubtful fits and often do not repeat.
# Assay: qHTS of GLP-1 Receptor Inverse Agonists: Cytotox Screen
# Settings: HEK293 cAMP-luciferase reporter cells, luminescence, 24 h; series mostly up to 38.3 µM
# Method in brief: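 Here, cytotoxicity is scored as loss of luminescence. The MLSMR collection was tested on cells seeded in medium containing 10% Nu serum, with a 24 hr compound exposure preceded by 12 hours of culture.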
# Potency means the concentration at half of the fitted maximal effect.
row,SMILES,Potency
1,Cc1ccc2c(c1)=N/C(=N\c1[nH]c(O)c3ccccc13)N=2,"inconclusive: 28.2 µM [inhibitor, single point]"
2,CC(C)C[C@H](NC(=O)c1nc[nH]c1C(=O)NC1CCNCC1)C(=O)OCc1ccccc1,inactive
3,Cc1ccc(-n2c(-c3ccccc3)c[nH]c2=S)cc1,"inconclusive: 7.08 µM [inhibitor, partial curve, poor fit]"
4,Cc1cc(C)n(CC(=O)Nc2cc(F)ccc2F)c(=O)c1C#N,inactive
5,COc1ccc(C(=O)Nc2nc(-c3nnn(-c4ccc(F)cc4F)c3C)ns2)cc1,"inconclusive: 28.2 µM [inhibitor, single point]"
6,Cc1c(-c2ccc(Cl)cc2)oc(=O)c2c(N)n(-c3ccccc3)nc12,"inconclusive: 7.08 µM [inhibitor, partial curve, poor fit]"
7,CC(C)(O)C(=O)N/N=C\c1ccc(OC/C=C/c2ccccc2)cc1,inactive
8,CCN(CC)c1ccc(NC(=O)Cn2c3ncccc3c(=O)n2-c2ccccc2)c(C)c1,inactive
9,S=C1NC2(CCCCC2)Cc2ccccc21,"inconclusive: 20 µM [inhibitor, single point]"
10,Cc1cccc(NC(=O)C23CCC(C)(C2Br)C3(C)C)c1 (stereo unspecified),inactive
11,COc1ccc(CCNC(=O)C(=O)Nc2ccc(C)c(C)c2)cc1,inactive
12,O=C(OCN1C(=O)c2ccccc2C1=O)c1cccc(OC(F)F)c1,"inconclusive: 22.4 µM [inhibitor, single point]"
13,Cc1cc(C)c(C(=O)Nc2cccc(F)c2)c(Cl)n1,inactive
14,OCCCN=c1cc(-c2ccccc2)oc2ccc(Cl)cc12,"inconclusive: 12.6 µM [inhibitor, single point]"
15,C/C(=N\Nc1nc2ccccc2[nH]1)c1ccc(Cl)s1,"inconclusive: 28.2 µM [inhibitor, single point]"
16,COCCCNC(=O)CCCN1C(=O)CCn2nc(-c3cccn3C)cc21,inactive
17,Cc1cc(C(=O)CN2C(=O)c3ccccc3S2(=O)=O)c(C)n1-c1ccccc1,inactive
18,O=C(c1cc(-c2cccc(Cl)c2)on1)N1CCc2ccccc2C1,"inconclusive: 0.794 µM [inhibitor, full curve, poor fit]"
19,CCOc1ccc(S(=O)(=O)N2CCC(C(=O)Nc3ccc(C)c(S(=O)(=O)N4CCOCC4)c3)CC2)cc1,inactive
20,COc1ccc(N=Cc2ccc(CNS(=O)(=O)c3ccc(Cl)cc3)o2)cc1,"inconclusive: 11.2 µM [inhibitor, single point]"
21,Cc1ccc(Nc2nc(NCCO)c3ccccc3n2)cc1C,"inconclusive: 31.6 µM [inhibitor, single point]"

# From PubChem BioAssay AID624418 (National Center for Advancing Translational Sciences (NCATS), 2012)
